What was measured:
Daudi = experiment: Apoptosis induction by cross-linked IgG (Annexin V/PI); format: cell-based, human; conditions: viable cells after 6 hour incubation, crosslinked, compared to control FITC-8 IgG1
Experimental: (§1) 2×10^5 B lymphoma cells (Raji or Ramos) or Jurkat T cells were incubated with serially diluted and detoxified scFv's in culture medium for 1 h on ice.
(§2) When whole IgGs were used for apoptosis induction, cross-linking reagent was replaced by goat Fab′2 anti-human Fc γ antibody (Jackson ImmunoResearch) with minimal cross-reactivity with non-IgG antibody isotypes (to avoid unspecific cross-linking of endogenous B lymphoma associated surface immunoglobulins) and incubated, as described above, for 6 h.
(§3) Apoptotic cells were, unless otherwise stated, detected by combined staining with Annexin V Alexa Fluor 488 (AV) and Propidium Iodide (PI) (both from Molecular Probes, Invitrogen) and subsequent flow-cytometric analysis, Cells were defined as viable (AV−/PI−), early apoptotic (AV+/PI−) or late apoptotic/necrotic (AV+/PI+). AV and PI signals were recorded in the FL1 and FL2 or FL3 channels (as indicated in the text), respectively, using a FACSCalibur instrument (BD Biosciences).
(§4) • ^aApoptosis Induction; determined by percentage of viable cells after 6 hour incubation with any of the human antibodies, crosslinked with Goat anti-Human (gamma) Fc specific antibody; −, viability not affected; +, 95-80%; ++, 79-60%; +++, 59-40% viable cells compared to control (human FITC-8 IgG1). […]
(§5) BI-505 receptor occupancy was studied following FACS analyses of tumor cells incubated with increasing concentrations of BI-505 in vitro. Briefly, following pre-blocking of tumor cell FcγR with 1 mg/ml human IgG on ice for 15 min, tumor cells were incubated with 10-fold serially diluted (10 μg/ml to 0.00001 μg/ml) AF647-BI505 and surface bound BI-505 was recorded as the mean fluorescence intensities (MFI) picked up in the FL4 channel of a FACSCalibur instrument. The experiment was repeated three times and mean MFI values were calculated and plotted as a function of antibody concentration. […] BI-505 concentration dependent PCD was calculated by plotting the percentage of maximal tumor PCD in vitro as a function of BI-505 concentration in a manner analogous to that described for BI-505 receptor occupancy. […]

Raji = experiment: as above; format: cell-based, human; conditions: viable cells after 6 hour incubation, crosslinked, compared to control FITC-8 IgG1
Experimental: as §1, §2, §3, §4, §5

Ramos = experiment: as above; format: cell-based, human; conditions: viable cells after 6 hour incubation, crosslinked, compared to control FITC-8 IgG1
Experimental: as §1, §2, §3, §4, §5

B lymphoma tissue = experiment: Immunohistochemistry on cryopreserved lymph node biopsies; format: binding, human; design: key: Increasing numbers of + indicate stronger staining.; ++: Increasing numbers of + indicate stronger staining.; +++: Increasing numbers of + indicate stronger staining
Experimental: Cryopreserved lymph node biopsies of patients with Anaplastic Large Cell B lymphoma (one patient), Centroblastic/Centrocytic B non-Hodgkin lymphoma (three patients), and B cell chronic lymphocytic leukaemia (one patient) were obtained from the Department of Pathology at Lund University (Lund, Sweden). Eight-micrometer sections of cryo-preserved tissue were fixed in acetone for 10 min at 4° C. Endogenous biotin-binding activity was blocked by sequential treatment with Avidin and Biotin (Avidin/Biotin blocking kit, Invitrogen) for 20 min each.
Tissues were incubated with 5 μg/ml control scFv or B11 scFv for 1 h. Following washing, sections were incubated with biotin-conjugated mouse anti-His mAb (R&D Systems) for 30 min. scFv binding was detected following treatment with ABC Complex/HRP reagent (Dako Cytomation) for 30 min, and subsequent incubation with DAB for 5 min.
Sections were photographed using a Leica DC 300F digital camera mounted on top of a Leica DMR light/fluorescence microscope.

HLA-DR = experiment: Radioiodinated IgG B1 binding to Raji cells, Rosenthal-Scatchard analysis; design: species or system human
Experimental: Iodination of 1 mg/ml of IgG1 B1 or IgG1 B11 proteins with [^125I] NaI was performed in PBS for 10 min using Iodogen pre-coated iodination tubes (Pierce). Free [^125I] NaI was removed by desalting on PD-10 columns (Amersham Biosciences), yielding specific radioactivities in the range of 1000-1600 cpm per ng protein. [^125I] IgG1 B1 and [^125I] IgG1 B11 was used for determination of antibody affinities.
Radioiodinated IgG B1 or IgG B11 was incubated with B lymphoma cells in DPBS-B-hIgG (DPBS-B containing 0.2 mg/ml human IgG) for 2 h on ice with intermittent mixing. Non-specific binding was determined in the presence of 0.2 mg/ml unlabelled IgG B1 or IgG B11 protein, as appropriate. […]
Cells were loaded on top 40% v/v Ficoll/DPBS-B cushions in individual tubes and were centrifuged at 400×g for 6 min at 4° C. […] Cell pellets and cell supernatants were isolated and analysed separately for ^125I-IgG protein content in a gamma counter, following cutting of the tubes in half.
Antibody affinity constants (Kd values) and epitope numbers per cell were determined from Scatchard plot analysis according to Rosenthal et al. (Anal. Biochem. (1967) 20:525-532); Bylund and Yamamura (Methods in Neurotransmitter Analysed, New York: Raven Press Ltd., 1990); and Marquardt (J. Soc. Indust. Appl. Math. (1963) 11:431-441), as previously described (Brix et al., J. Clin. Invest. (1998) 102:283-293). […]

Raji B lymphoma cells = experiment: Direct cell cytotoxicity in the absence of cross-linking reagents, 24 hours; format: cell-based, human; conditions: absence of cross-linking reagents, 20, 6.7 or 2.2 μg/ml
Experimental: Cells were harvested and viability was determined as the percentage of Annexin V and Propidium Iodide double negative cells.

B1: B1: fully human IgG1 antibody specific for HLA-DR/DP; VH and VL sequences of FIG. 9 (SEQ ID NOs. 2 and 4) (antibody, listed as Homo sapiens, V domains shown)
VH: [about 100 residues left out here]DGLLPLDYWGQGTLVTVSS
VL: QSVLTQPPSASGTPGQRVTISCSGGSSNIGGNAVNWYQQLPGTAPKLLIYENNKRPSGVPDRFSGSKSGTSASLAISGLRSEDEADYYCSSYAVSNNFEVLFGGGTKLTVLG
Apoptosis Induction (Daudi): + (95-80%)
Apoptosis Induction (Raji): +++ (59-40% viable cells compared to control (human FITC-8 IgG1))
Apoptosis Induction (Ramos): + (95-80%)
Staining of B lymphoma tissue (B lymphoma tissue; Patient A, B-CLL (low malignant non-Hodgkin Lymphoma)): ++
Staining of B lymphoma tissue (B lymphoma tissue; Patient B, Anaplastic Large Cell B Cell Lymphoma): +++
Staining of B lymphoma tissue (B lymphoma tissue; Patient C, Centroblastic-Centrocytic B non-Hodgkin Lymphoma): ++
Staining of B lymphoma tissue (B lymphoma tissue; Patient D, B-CLL/B-PLL): +++
Staining of B lymphoma tissue (B lymphoma tissue; Patient E, Centroblastic B non-Hodgkin Lymphoma): +++
Staining of B lymphoma tissue (B lymphoma tissue; Patient F, Centroblastic-Centrocytic B non-Hodgkin Lymphoma): +++
Kd (HLA-DR; Rosenthal-Scatchard plot, bivalent epitope-IgG interaction assumed, read-out: dissociation constant): ~3 nM
concentration at which saturable specific binding is reached (HLA-DR; radioiodinated IgG, 4° C): ~30 nM
direct cell cytotoxicity (Raji B lymphoma cells): induce direct cell cytotoxicity

— US9803013B2, “Biological materials and uses thereof” (BioInvent International AB, priority 2005, dated 2017)
